Consider 35 compounds from PubChem BioAssay (NCI).

Values joined by “and” are separate entries in the source; they are usually repeats but may differ in a detail not shown here. Identical values can stand only once.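 Test compounds were applied to cells in 96-well plates for 48 hours at 5 doses. At the GI50, growth is halved. TGI is the concentration that stops growth completely.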 Bounds are passed on as bounds.

This experiment deals with NCI-H322M lung. The experiment is described as follows: NCI tumour cell line growth inhibition, 48 h.
On to `CN(C)C=Nc1ccn(CCO)c(=O)n1`, for which the TGI is > 100 µM.
For the compound `CCSCC1CC(O)(c2ccccc2)CC(c2ccc(F)cc2)O1` (stereo not drawn), the GI50 is 2.18 µM and the TGI amounted to 7.7 µM.
For `CC(C)(C)OC(=O)n1c2ccccc2c2c(=O)nc(N3CCCCC3)sc21`, the TGI was > 100 µM.
`Nc1nccc(-c2c(-c3ccc(F)cc3)ncn2C2CCNCC2)n1`: the GI50 was 8.44 µM and 5.47 µM; the TGI was > 25 µM.
Consider `O=c1ccc2nc3cc(Br)ccc3sc-2c1`, for which the TGI was > 100 µM.
Take `C[C@@H](NC1CCCC[C@H]1O)c1ccccc1` (stereo partly drawn): the TGI was > 100 µM.
As for `c1ccc2sc(SCCSc3nc4ccccc4s3)nc2c1`, the TGI is > 100 µM.
Take `Nc1ncnc2c1ncn2[C@]1(CO)C=C(CO)C(O)C1O` (stereo partly drawn): the TGI is > 100 µM.
On the same count and under the same terms, the value for `CN(C)CCCN1C(=S)N(CCCN(C)C)c2c3ccccc3nc3c([N+](=O)[O-])ccc1c23` was 22.4 µM.
The same measure, in the same setting: the value for `O=C(NC1(c2cc3ccccc3s2)CCCCC1)C1CCC1` was > 100 µM; that for `O=c1c2cc(I)ccc2nc(SCc2nncs2)n1Cc1ccccc1` was > 100 µM; that for `C#C[C@]1(O)CC[C@H]2[C@@H]3CCC4=C/C(=N/OCCN(C)C)CC[C@]4(C)[C@H]3CC[C@@]21C` was > 100 µM.
Still for that read-out and setting: the value for `COc1ccc(C2NC(=S)Nc3c2c(=O)oc2c3ccc3ccccc32)cc1` (stereo not drawn) was > 100 µM.
Consider `COc1ccc(C(c2cc(OC)c(OC)c(OC)c2)n2ccnc2)cc1O` (stereo not drawn), for which the GI50 was 0.789 µM and the TGI was > 100 µM.
Regarding `CCOC(=O)c1c[nH]c2c(Sc3ccccc3)nccc2c1=O`, the TGI was > 100 µM.
Take `CCCNC(=S)/N=C/c1c(O)cc(C)oc1=O`: the TGI was > 100 µM.
As for `COc1ccc(N=Nc2c(C)c(C#N)c(=S)n(C3OC(CO)C(O)C(O)C3O)c2-c2ccccc2)cc1` (stereo not drawn), the TGI is > 100 µM.
Still for that read-out and setting: as for `Cc1cc2c(c(C=Nc3ccccc3O)c1)OC1(C=C2)Oc2ccccc2C(=O)N1C` (stereo not drawn), the figure is 35.7 µM.
On to `OCCN1CCN(CCCN2c3ccccc3Sc3ccc(Cl)cc32)CC1`, for which the GI50 was 7.89 µM and the TGI amounted to 20.8 µM.
`C[C@@H](c1ccccc1)n1c(N)c(-c2ccccn2)c2ccc([N+](=O)[O-])cc2c1=O`: the TGI is > 100 µM.
As to `O=C(O[C@@H](/C=C/c1ccccc1)P1(=O)N(Cc2ccccc2)[C@H]2CCCC[C@@H]2N1Cc1ccccc1)c1ccccc1`, the TGI is > 100 µM.
Consider `O=S(=O)(NCCCNc1nccc(-c2c(-c3ccc(O)cc3)nc3sccn23)n1)c1ccc(F)cc1`, for which the GI50 is 3.21 µM and the TGI turned out to be 12.6 µM.
`CCCCCCCCCCCCCCCCCc1cccc(OCOCCOC)c1C(=O)O`: the TGI was found to be 35.7 µM.
As for `N.N.N.N.N.[Co+3].[I-].[N-]=[N+]=[N-]`, the GI50 was > 100 µM and the TGI is > 100 µM.
As to `Cc1nc([P+](c2ccccc2)(c2ccccc2)c2ccccc2)c(Sc2sc(-c3ccccc3)nc2[P+](c2ccccc2)(c2ccccc2)c2ccccc2)o1`, the GI50 is 2.32 µM and the TGI turned out to be 7.63 µM.
On to `O=C(NCCCCCCCCCCCCNC(=O)c1cccc2ccccc12)c1cccc2ccccc12`, for which the TGI was > 100 µM.
Regarding `COC(=O)/C(C#N)=C(\Nc1ccccc1)N1CCOCC1`, the TGI was > 100 µM.
Take `CC1=CC(=O)C2=C(C)CCC3C(C)C(=O)OC3C12` (stereo not drawn): the TGI is > 100 µM.
Turning to `CCN(CCCN(C)C)Cc1cc(I)cc(C)c1O`, the GI50 was 28.3 µM and the TGI worked out at 85.3 µM.
Turning to `O=C1NC(N2CCOCC2)=N/C1=C\c1ccc(Cl)cc1`, the TGI was > 100 µM.
The same measure, in the same setting: the value for `COP(=O)(OC)C(=O)N1N(c2ccc([N+](=O)[O-])cc2)C(=O)C(C)NC1(NNc1ccc([N+](=O)[O-])cc1)P(=O)(OC)OC` (stereo not drawn) was > 100 µM; that for `N#CC(C(=O)c1cccnc1Cl)c1nc2cc(C(F)(F)F)ccc2s1` (stereo not drawn) was > 100 µM.
Same read-out and setting: the value for `CC(=O)Nc1ccc(NCC(=O)Nn2cnc3ccc(S(=O)(=O)Nc4ccc(NC(C)=O)cc4)cc3c2=O)cc1` was > 100 µM.
Turning to `O=C1NC(=O)C(F)(n2cc(F)c(=O)[nH]c2=O)C(O)N1` (stereo not drawn), the TGI was > 10 µM.
Still for that read-out and setting: the value for `C=C=C(CC1CCCCC1=O)S(=O)(=O)c1ccccc1` (stereo not drawn) was > 10 µM.
